Measured values from the supplement of paper PMC3334620.
Over roughly 33,000 sequences, “E-score (-0.5 to 0.5)” has its median near -0.04; the highest 2% begin near 0.36. Some of the results follow.

What follows are sequences tested against T1, Hmlalpha2 (UniProt P0CY09) (assay: PBM E-score (8-mer binding enrichment) (E-score (-0.5 to 0.5)); higher = stronger / more preferred TF binding; most listed sequences are background and not binding sites). Conditions: protein concentration: 200 nM; construct: GST-full length.
T1 sequence: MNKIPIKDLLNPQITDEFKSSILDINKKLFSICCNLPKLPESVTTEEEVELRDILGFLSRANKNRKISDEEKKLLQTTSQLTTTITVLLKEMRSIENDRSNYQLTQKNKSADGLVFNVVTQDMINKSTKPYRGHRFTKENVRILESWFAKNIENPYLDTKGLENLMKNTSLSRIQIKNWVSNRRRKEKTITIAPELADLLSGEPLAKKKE
Protocol: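 Universal 'all 10-mer' protein binding microarrays (Agilent AMADID 015681) probed with GST-tagged S. cerevisiae TFs (full-length or DBD) made by in vitro transcription/translation (PURExpress), about 100-200 nM. Bound TF was detected with fluorescent anti-GST. Each ungapped 8-mer (which stands for itself and its reverse complement) is scored by the PBM enrichment score (E-score), a modified Wilcoxon-Mann-Whitney statistic from -0.5 to +0.5, computed with the Universal PBM Analysis Suite. Scale: above 0.35 generally sequence-specific binding.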

Sequence	PBM E-score
ATGCAACG	0.139
AGGTATGA	0.0876
ACAACGTC	0.197
GGCTTCCA	-0.356
ATGATAAC	0.246
GATGAGCC	-0.213
GGATTCCA	0.0857
CGCCCCTC	-0.159
CACGGGTC	0.00809
CAGATCTA	0.0478
CACCATGA	-0.188
ATCACATA	0.252
GACGGTAC	-0.0778
CTTTGGGC	-0.181
CAACGCTA	-0.0373
CGCAACCA	-0.0283
ACGAATGG	0.0117
AATGCGCT	-0.0192
CATTGCAG	0.074
CGACGGTA	-0.0674
GATTTCTA	-0.037
CCAGAGAC	-0.237
AGTTGACC	-0.0988
CCCAGCAA	-0.0162
GCTAACCC	-0.0929

Sequence	PBM E-score
ATAGCTAG	-0.108
CGAGAGGA	-0.0167
GTCAAGGA	0.0281
AAACCTAA	0.0553
ACAGGAAG	0.0597
GAAGAACA	0.298
TCATCACA	0.0876
GAAGATTA	0.0807
AACGAATT	0.022
CCAACAAA	0.224
TAGGTGCA	-0.193
ACACAGCT	0.298
GTCGATAA	0.0673
AGATGGAC	-0.156
ACTGAGCA	-0.0094
AAAGAAGT	0.123
ATGGGGGA	-0.321
CAACTTGA	0.125
CAGGTGCC	-0.262
GACTCATC	-0.216
ACGCACGG	0.0872
ATTCGGTA	0.181
AGCCAAAG	-0.133
CCGTGTGA	0.292
CGTGCAGA	0.0241

Sequence	PBM E-score
TCTCGGAA	-0.0555
CATTCGAG	0.058
AATTAAGG	-0.0679
AAATGTGC	0.0196
TGCGACCA	-0.117
GGCTCCGA	-0.166
CAGGGAAC	-0.105
AAGAACCA	-0.0365
AATTCAGT	-0.0546
AATACGCT	0.234
CAGATGGC	-0.00972
ACATGAAA	0.302
CATATGGC	-0.118
ATTTGAGG	-0.169
GTTGGTGA	-0.0661
GGTCACTA	-0.204
CGGGACAA	-0.193
ACTAATAT	0.095
AACGCAAC	0.299
ATCGGTCG	-0.0664
GGTCTACA	0.328
GTAAATGA	0.324
AAAGCTCG	0.00761
GGCACCAA	-0.00607
ATTCGGAC	0.173

Sequence	PBM E-score
GATGTAGA	0.314
AGGCACCT	-0.269
AGGTTGCC	-0.267
AATCTGCT	-0.0528
CTCAATCA	0.0115
CCTGGCCC	-0.351
ACGTAACG	0.161
CTAAGTAA	0.251
AGCGCAAG	-0.155
AGTGGGTC	-0.265
CTCCGTCA	-0.0949
GGTGCCAC	-0.254
TAATGATA	0.234
AAAATGAT	0.127
ACGCTCTA	-0.0608
CTTTCCCA	-0.144
CGCTGCGA	-0.117
AGCGTAAC	0.19
CCGTTACG	0.0618
GACGAGTC	-0.0709
AAAGTTGG	0.0805
ACGCCGAT	0.0555
GAGCGTAA	0.202
AGCCAACT	-0.00124
AACTGATT	-0.00593

Sequence	PBM E-score
GGAAGACC	-0.337
GCAAAGGC	-0.257
CACATAAG	0.117
AGTATACT	0.043
CACCGGGA	-0.208
ATTAGAAA	0.0551
GTAGAAGA	-0.00977
CATTTAGC	0.0542
AATACGAA	0.216
CCGCCCTA	-0.0665
AACAGCTA	0.115
GAAGAGAC	-0.0584
CACAACCC	-0.0761
CCATATAA	-0.0218
AGCGTGCG	-0.122
TAGGGACA	-0.107
AAGAAGGG	-0.355
GGAAGAAA	-0.114
GCCAGGAC	-0.269
AAAATATA	0.0897
AGTTTGGA	0.169
ATGCAAGG	-0.246
CCCTTTGA	-0.159
ATATAACC	-0.0903
GCCGCACA	-0.0781

Sequence	PBM E-score
GCAGCCCA	-0.281
AAACCTAG	0.0544
GATTTGCC	-0.0286
CTATAAAG	-0.181
AATCAGGT	0.158
GAGCCAAA	-0.0699
TCAACTCA	0.0758
AATCTCCC	-0.2
AAGTTCAA	0.153
AGCTACCA	-0.00947
AGCTGTTC	-0.209
CTGTGGCC	-0.164
CAATTAAG	0.107
AAACAGGT	0.0742
GACCGTGA	-0.0698
CACCCATC	-0.214
AAAGCAAA	0.123
CGTACAAC	0.256
ATGCACGC	0.133
CAAGAAAC	0.13
ACATCAGT	0.0417
ATGCGGGC	-0.0538
CGGTGTTA	0.253
ACATTTCG	0.0602
GTCCTGCA	-0.11

Sequence	PBM E-score
CCCCCCGA	-0.394
ATGGTCCG	-0.0121
GAAAGTTA	0.183
AATAAACT	0.102
GACCTATC	-0.245
CATGAGCG	-0.0447
GCCCTAGA	-0.28
AAGCACGC	0.0885
ATGAGTAG	-0.0182
ACGTTGTC	0.155
CGAGACAG	0.0308
ACCAGGCT	-0.121
GGTTGGAA	-0.289
TGCCCACA	-0.101
CAACCCAA	0.0834
GGCCACTA	-0.112
GCCCCGTA	-0.14
TCCTACAA	0.171
AGTCGCAG	-0.18
ATTCCATA	-0.0528
AAACTCAG	0.13
CGCCCGAA	-0.201
CCACCATC	-0.318
CCTCAGTC	-0.311
CTTCAACA	0.341

Sequence	PBM E-score
GATGAAAA	0.0728
AGGGCGCG	0.00904
AGCAATTC	-0.139
CTTCTTAA	0.169
AAATGCTC	0.0399
TGGGCTAA	-0.165
AAGTCGAC	0.0896
AGGAGCCC	-0.295
CCTCGGCG	-0.124
AACGGTCG	-0.0379
AAAACACA	0.333
AAAAAAAG	-0.0733
CAACGGTG	-0.155
ATGCAGCA	-0.138
CACCGCGA	-0.194
ACGTCAAT	0.0383
AAAATTTC	-0.112
ACGGGGTG	-0.115
AGATTGGG	-0.0423
CCTTCACC	-0.223
TGAATTAA	0.256
ACCGTCCA	-0.166
CAACTATA	0.131
AGGAATTC	-0.167
AAAACGCT	-0.0306

Sequence	PBM E-score
ACGAGCCG	0.153
CGACGGCC	-0.00229
ACAAGCTA	0.182
ACTAGGTC	-0.0601
GATCGCCC	-0.0101
ATTACCCA	0.211
AATGTTTA	0.314
CGATTTAC	0.176
TCTTATCA	0.245
AAAGTGCA	-0.0584
ACTGCCCT	-0.238
ACCCATAC	-0.0068
AAAAAGGC	-0.0813
CAAACGGA	-0.11
ACACTGCG	0.0109
CTACCTCC	-0.143
AAGGAGGG	-0.179
AGACACGC	0.147
AATGGTAT	0.115
